{
  "source": "paper PMC4336329",
  "about": "(PLoS ONE, 2015)",
  "note": "Screen size: about 310,000 compounds; about 14,000 (4.5%) showed an effect of 50% or more. Effects have a minus sign here. Some of the results follow.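 Further: peak tail current of the secondary pulse compared with the same well before compound.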",
  "data": [
    {"biological_target": "human ether-à-go-go-related gene (hERG) potassium channel (human, UniProt Q12809)", "sequence (Q12809 whole entry, looked up)": "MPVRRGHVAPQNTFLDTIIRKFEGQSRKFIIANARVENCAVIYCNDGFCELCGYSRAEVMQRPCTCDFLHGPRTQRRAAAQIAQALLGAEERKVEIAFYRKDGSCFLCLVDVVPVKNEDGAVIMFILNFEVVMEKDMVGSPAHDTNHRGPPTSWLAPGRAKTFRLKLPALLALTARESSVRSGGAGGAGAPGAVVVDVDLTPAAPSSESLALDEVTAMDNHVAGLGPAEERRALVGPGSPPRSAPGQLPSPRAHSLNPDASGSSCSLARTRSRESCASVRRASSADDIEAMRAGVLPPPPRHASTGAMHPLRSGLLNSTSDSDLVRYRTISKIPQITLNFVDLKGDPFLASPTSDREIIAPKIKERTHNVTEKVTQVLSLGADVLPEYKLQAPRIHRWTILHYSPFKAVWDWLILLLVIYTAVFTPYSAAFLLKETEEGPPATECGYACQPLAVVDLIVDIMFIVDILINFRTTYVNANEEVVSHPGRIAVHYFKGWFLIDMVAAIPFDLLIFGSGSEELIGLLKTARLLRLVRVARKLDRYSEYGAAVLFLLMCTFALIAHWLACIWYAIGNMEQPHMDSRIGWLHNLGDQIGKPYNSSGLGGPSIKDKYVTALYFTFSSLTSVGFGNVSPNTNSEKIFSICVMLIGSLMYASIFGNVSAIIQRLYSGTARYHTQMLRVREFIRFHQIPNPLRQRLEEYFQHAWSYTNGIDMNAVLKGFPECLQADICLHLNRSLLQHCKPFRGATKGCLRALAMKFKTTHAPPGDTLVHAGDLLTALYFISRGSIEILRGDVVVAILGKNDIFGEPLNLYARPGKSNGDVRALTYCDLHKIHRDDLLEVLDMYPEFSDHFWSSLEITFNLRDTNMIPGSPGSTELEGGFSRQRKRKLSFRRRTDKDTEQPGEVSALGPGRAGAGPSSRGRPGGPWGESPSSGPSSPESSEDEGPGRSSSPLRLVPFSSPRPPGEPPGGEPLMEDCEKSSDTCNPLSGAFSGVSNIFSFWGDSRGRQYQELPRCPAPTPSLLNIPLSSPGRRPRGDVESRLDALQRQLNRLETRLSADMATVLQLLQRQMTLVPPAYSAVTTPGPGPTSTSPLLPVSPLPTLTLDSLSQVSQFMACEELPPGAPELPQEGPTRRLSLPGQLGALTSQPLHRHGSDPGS", "test": "primary screen, population patch clamp on CHO cells stably expressing hERG", "units": {"hERG current change (%, negative = inhibition) at 10uM": "%"}, "values": [
      {"smiles": "O=C(O)c1ccc(S(=O)(=O)N2CCC(Cc3ccccc3)CC2)cc1", "hERG current change (%, negative = inhibition) at 10uM": 13.2},
      {"smiles": "Cc1ccccc1OCCC(=O)OCC(=O)Nc1ccc(N2CCOCC2)cc1", "hERG current change (%, negative = inhibition) at 10uM": -21.3},
      {"smiles": "O=C1CNC(=O)/C(=C\\c2ccccc2)N1", "hERG current change (%, negative = inhibition) at 10uM": 11.8},
      {"smiles": "CN(Cc1nccs1)C(=O)C1CCC(=O)N(CCc2cccc(F)c2)C1", "note": "(stereo not drawn)", "hERG current change (%, negative = inhibition) at 10uM": -12.4},
      {"smiles": "COC(=O)C(=Cc1ccc(-c2ccsc2C(=O)OC)o1)C(=O)OC", "hERG current change (%, negative = inhibition) at 10uM": 12},
      {"smiles": "CCN1CCN(Cc2c(O)ccc3c(C)cc(=O)oc23)CC1", "hERG current change (%, negative = inhibition) at 10uM": 33.1},
      {"smiles": "C=C(C)COc1ccc(-c2n[nH]c(C)c2-c2ccc(Br)cc2)c(O)c1", "hERG current change (%, negative = inhibition) at 10uM": -14.5},
      {"smiles": "COc1c(OC(C)=O)ccc(/C=C/c2ccc3ccccc3n2)c1[N+](=O)[O-]", "hERG current change (%, negative = inhibition) at 10uM": -5.48},
      {"smiles": "CN(Cc1ccc(OC(F)F)cc1)C(=O)c1ccc2nccnc2c1", "hERG current change (%, negative = inhibition) at 10uM": -67.8},
      {"smiles": "Cc1c(Cc2ccccc2)c(NCCCO)n2c(nc3ccccc32)c1C#N", "hERG current change (%, negative = inhibition) at 10uM": -6.81},
      {"smiles": "O=C(Nc1ccc(S(=O)(=O)N2CCCC2)cc1)c1ccc(CN2CCc3ccccc3C2)cc1", "hERG current change (%, negative = inhibition) at 10uM": -3.13},
      {"smiles": "O=C(Nc1cccc(C(=O)Nc2ccc(Br)cc2)c1)c1ccccc1", "hERG current change (%, negative = inhibition) at 10uM": 8.18},
      {"smiles": "CCCC(=O)NCCc1nc2ccccc2n1CCC", "hERG current change (%, negative = inhibition) at 10uM": 1.27},
      {"smiles": "O=C(CCN1CCOCC1)NNC(=S)NC(=O)c1ccc(Br)cc1", "hERG current change (%, negative = inhibition) at 10uM": 52.7},
      {"smiles": "Cc1c(C(=O)N/N=C/c2ccccc2)[nH]c2ccc(Cl)cc12", "hERG current change (%, negative = inhibition) at 10uM": 27.8},
      {"smiles": "CCN(CC)S(=O)(=O)c1ccc(-c2nnc(SC)o2)cc1", "hERG current change (%, negative = inhibition) at 10uM": -9.82},
      {"smiles": "CC(OC(=O)c1ccccc1Br)C(=O)Nc1nc(-c2cccc([N+](=O)[O-])c2)cs1", "note": "(stereo not drawn)", "hERG current change (%, negative = inhibition) at 10uM": -4.81},
      {"smiles": "COC(C/C=C/[C@@H](O)[C@H](C)OCc1ccccc1)OC", "hERG current change (%, negative = inhibition) at 10uM": 12.2},
      {"smiles": "COc1ccc(OCC(=O)Nc2c(Cl)ccc3nsnc23)cc1", "hERG current change (%, negative = inhibition) at 10uM": -10.8},
      {"smiles": "CCOC(=O)N1CCC(c2nc(C)sc2C(=O)O)CC1", "hERG current change (%, negative = inhibition) at 10uM": 20.7},
      {"smiles": "Cc1cc2ncn(CS(C)(=O)=O)c2cc1C", "hERG current change (%, negative = inhibition) at 10uM": 22.6},
      {"smiles": "O=C(O)c1ccccc1-c1nc2ccccc2n1-c1ccccc1", "hERG current change (%, negative = inhibition) at 10uM": 13},
      {"smiles": "O=C(O)C1C(c2ccccc2)C(C(=O)OCCCO)C1c1ccccc1", "note": "(stereo not drawn)", "hERG current change (%, negative = inhibition) at 10uM": -1.18},
      {"smiles": "CC(C)Oc1cccc(C(=O)C2CCCN(C(=O)c3noc4c3CCCC4)C2)c1", "note": "(stereo not drawn)", "hERG current change (%, negative = inhibition) at 10uM": -44.6},
      {"smiles": "C/C(=N\\N1C(=O)c2ccccc2NC1c1ccco1)c1ccccc1O", "note": "(stereo not drawn)", "hERG current change (%, negative = inhibition) at 10uM": 25.3},
      {"smiles": "O=C(NNS(=O)(=O)c1ccc([N+](=O)[O-])cc1)c1ccc([N+](=O)[O-])cc1", "hERG current change (%, negative = inhibition) at 10uM": 28.6},
      {"smiles": "CCOC(=O)C1(CCOc2ccccc2)CCN(Cc2cnc(C)s2)CC1", "hERG current change (%, negative = inhibition) at 10uM": -62.4},
      {"smiles": "CC(C)(C)CN1CCNC(=O)C1CC(=O)NCCN1CCCc2ccccc21", "note": "(stereo not drawn)", "hERG current change (%, negative = inhibition) at 10uM": 0.68},
      {"smiles": "Cc1ccc(S(=O)(=O)N(C)C)cc1NC(=O)COC(=O)c1ccc(Cl)cc1", "hERG current change (%, negative = inhibition) at 10uM": 3.01},
      {"smiles": "O=C(OC(C(=O)Nc1ccc([N+](=O)[O-])cc1Br)c1ccccc1)c1ccccc1", "note": "(stereo not drawn)", "hERG current change (%, negative = inhibition) at 10uM": 5.91},
      {"smiles": "O=S(Cc1ccc(Br)cc1)Cc1nnc(SCc2ccc(Cl)cc2)n1-c1ccccc1", "note": "(stereo not drawn)", "hERG current change (%, negative = inhibition) at 10uM": -11.6},
      {"smiles": "C[n+]1ccccc1/C=C/c1cc(Br)ccc1O.[I-]", "hERG current change (%, negative = inhibition) at 10uM": 14.7},
      {"smiles": "Cc1cc(Cl)c2oc(C(=O)NCCC3CCCCO3)c(C)c2c1", "note": "(stereo not drawn)", "hERG current change (%, negative = inhibition) at 10uM": 2.57},
      {"smiles": "COc1ccc(N2CC(C(=O)N(C)CC(=O)Nc3ccc(Cl)c(C(F)(F)F)c3)CC2=O)c(OC)c1", "note": "(stereo not drawn)", "hERG current change (%, negative = inhibition) at 10uM": -43.4},
      {"smiles": "Cc1ccc(Cn2c(SCC(=O)N/N=C/c3ccc(C)o3)nc3ccccc32)cc1", "hERG current change (%, negative = inhibition) at 10uM": -61.1},
      {"smiles": "COc1ccccc1-c1nnc(NC(=O)c2ccc3c(c2)OCO3)s1", "hERG current change (%, negative = inhibition) at 10uM": 5.2},
      {"smiles": "CCOCCCn1c(=S)[nH]c2cc(C(=O)NCCOC)ccc2c1=O", "hERG current change (%, negative = inhibition) at 10uM": 10.7},
      {"smiles": "CC1Oc2ccccc2OC1(O)c1ccc2ccccc2n1", "note": "(stereo not drawn)", "hERG current change (%, negative = inhibition) at 10uM": -8.21},
      {"smiles": "O=C(CCc1nc(-c2ccccc2Cl)no1)NCCc1ccccc1", "hERG current change (%, negative = inhibition) at 10uM": 7.08},
      {"smiles": "CC1(C(=O)Nc2ccc3ccccc3c2)CC1(Br)Br", "note": "(stereo not drawn)", "hERG current change (%, negative = inhibition) at 10uM": -4.46},
      {"smiles": "c1ccc(C(c2ccccc2)c2ccn[nH]2)cc1", "hERG current change (%, negative = inhibition) at 10uM": 11},
      {"smiles": "CC1CCCCN1C(=O)CSc1nc2cc3c(cc2c(=O)n1Cc1ccc2c(c1)OCO2)OCO3", "note": "(stereo not drawn)", "hERG current change (%, negative = inhibition) at 10uM": 1.12},
      {"smiles": "O=Cc1ccc(Oc2nc(Cl)ncc2F)cc1", "hERG current change (%, negative = inhibition) at 10uM": 10.4},
      {"smiles": "CCOC(=O)c1cc2sccc2n1CC(=O)N1CCN(C(=O)c2ccco2)CC1", "hERG current change (%, negative = inhibition) at 10uM": -48.2},
      {"smiles": "COc1ccc(-c2cn3cc(C)ccc3n2)cc1OC.Cl", "hERG current change (%, negative = inhibition) at 10uM": -3.44}
    ]}
  ]
}
